The other results are listed elsewhere or left out. Sequences were assembled here from the parent chain. Inactive controls read about 0.05.
B1: TEV protease; numbered along this chain (parent)
chain: MGESLFKGPRDYNPISSSICHLTNESDGHTTSLYGIGFGPFIITNKHLFRRNNGTLVVQSLHGVFKVKDTTTLQQHLVDGRDMIIIRMPKDFPPFPQKLKFREPQREERICLVTTNFQTKSMSSMVSDTSCTFPSGDGIFWKHWIQTKDGQCGSPLVSTRDGFIVGIHSASNFTNTNNYFTSVPKNFMELLTNQEAQQWVSGWRLNADSVLWGGHKVFMVKPEEPFQPVKEATQL

Variants of: B1
Assay: raw area under fraction-flipped curve 0-4 h after induction (AUC4h, not background-subtracted), DNA-recorder readout of cleavage of the substrate (dimensionless); higher = more cleavage of the substrate by the protease variant
Conditions: temperature: 34 °C; time window: 0-4 h after rhamnose induction
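Further: Bxb1 expression induced with 0.2% (w/v) L-rhamnose at OD600 near 0.5, cultures sampled hourly, flipped fraction per protease–substrate barcode pair counted by paired-end Illumina sequencing.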

Variant | area with substrate EELYFQS | area with substrate EGLYFQS | area with substrate EILYFQS | area with substrate EKLYFQS | area with substrate EMLYFQS | area with substrate EQLYFQS | area with substrate ERLYFQS | area with substrate ESLYFQS | area with substrate EWLYFQS | area with substrate EDLYFQS | area with substrate EPLYFQS | area with substrate ETLYFQS | area with substrate EVLYFQS | area with substrate EYLYFQS | area with substrate ELLYFQS | area with substrate EFLYFQS | area with substrate EHLYFQS
MGESLFKGPRDYNPISSSICHLTNESDGHTTSLYGIGFGPFIITNKHLFRRNNGTLVVQSLHGVFKVKDTTTLQQHLVDGRDMIIIRMPKDFPPFPQKLKFREPQREERICLVTTNFQTKSMSSMVSDTSCTFPSGDGIFWKHWIQTKDGQCGSPLVSTRDGFIVGIHSASNFTNTNNYFTSVPKNFMELLTNQEAQQWVSGWRLNADSVLWGGHKVFMVKPEEPFQPVKENTQL [A232N] | 0.171 | 0.0892 | 0.112 | 0.117 | 0.103 | 0.107 | 0.131 | 0.111 | 0.0831 | – | – | – | – | – | – | – | –
MGESLFKGPRDYNPISSSICHLTNESDGHTTSLYGIGFGPFIITNKHLFRRNNGTLVVQSLHGVFKVKDTTTLQQHLVDGRDMIIIRMPKDFPPFPQKLKFREPQREERICLVTTNFQTKSMSSMVSDTSCTFPSGDGIFWKHWIQTKDGQCGSPLVSTRDGFIVGILSASNFTNTNNYFTSVPKNFMELLTNQEAQQWVSGWRLNADSVLWGGHKVFMVKPEEPFQPVKEATQL [H168L] | 0.0707 | 0.0564 | – | 0.0651 | 0.065 | 0.0586 | – | 0.0583 | 0.0634 | 0.0618 | 0.0492 | 0.0783 | 0.0524 | 0.0516 | – | – | –
MGESLFKGPRDYNPISSSICHLTNESDGHTTSLYGIGFGPFIITNKHLFRRNNGTLVVQSLHGVFKVKDTTTLQQHLVDGRDMIIIRMPKDFPPFPQKLKFREPQREERICLVTTNFQTKSMSSMVSKTSCTFPSGDGIFWKHWIQTKDGQCGSPLVSTRDGFIVGIHSASNFTNTNNYFTSVPKNFMELLTNQEAQQWVSGWRLNADSVLWGGHKVFMVKPEEPFQPVKEATQL [D128K] | – | – | – | 0.149 | – | 0.108 | – | 0.103 | – | 0.104 | – | – | – | – | 0.0805 | – | –
MGESLFKGPRDYNPISSSICHLTNESDGHTTSLYGIGFGPFIITNKHLFRRNNGTLVVQSLHGVFKVKDTTTLQQHLVDGRDMIIIRMPKDFPPFPQKLKFREPQREERICLVTTNFQTKSMSSMVSDTSCTFPSGDGIFWKHWIQTKDGQCGSPLVSTRDGFIVGIHSASNFTNTNNYFTSVPKNFMELLTNQEAQQWPSGWRLNADSVLWGGHKVFMVKPEEPFQPVKEATQL [V200P] | 0.0725 | 0.0728 | 0.0255 | – | – | – | – | 0.0706 | 0.0681 | – | – | – | 0.0646 | – | 0.0638 | 0.0661 | –
MGESLFKGPRDYNPISSSICHLTNESDGHTTSLYGIGFGPFIITNKHLFRRNNGTLVVQSLHGVFKVKDTTTLQQHLVDGRDMIIIRYPKDFPPFPQKLKFREPQREERICLVTTNFQTKSMSSMVSDTSCTFPSGDGIFWKHWIQTKDGQCGSPLVSTRDGFIVGIHSASNFTNTNNYFTSVPKNFMELLTNQEAQQWVSGWRLNADSVLWGGHKVFMVKPEEPFQPVKEATQL [M88Y] | 0.0753 | – | 0.064 | – | 0.068 | – | – | 0.0645 | – | 0.0582 | 0.0686 | – | – | 0.0614 | – | – | 0.0548
MGESLFKGPRDYNPISSSICHLTNESDGHTTSLYGIGFGPFIITNKHLFRRNNGTLVVQSLHGVFKVKDTTNLQQHLVDGRDMIIIRMPKDFPPFPQKLKFREPQREERICLVTTNFQTKSMSSMVSDTSCTFPSGDGIFWKHWIQTKDGQCGSPLVSTRDGFIVGIHSASNFTNTNNYFTSVPKNFMELLTNQEAQQWVSGWRLNADSVLWGGHKVFMVKPEEPFQPVKEATQL [T72N] | 0.103 | 0.121 | 0.0867 | 0.0902 | 0.0951 | – | 0.0902 | 0.0885 | 0.0997 | 0.118 | – | 0.124 | – | 0.079 | 0.094 | – | 0.0885
MGESLFKGPRDYNPISSSICHLTNESDGHTTSLYGIGFGPFIITNKHLFRRNNGTLVVQSLHGVFKVKDTTTLQQHLVDGRDMIIIRMPKDFPPFPQKLKFREPQREERICLVTTNFQTKSMSSMVSDTSCTFPSGDGIFWKHWIQTKDGQCGSPLVSTRDGFIVGIHSASNFTNTNNYFTSVPKNFMELLTNQEAQQWVSGWRLNANSVLWGGHKVFMVKPEEPFQPVKEATQL [D208N] | 0.117 | 0.0803 | 0.0747 | 0.0512 | 0.0563 | – | 0.0841 | 0.0983 | 0.0889 | – | 0.0827 | – | – | – | – | – | 0.074
MGESLFKGPRDYNPISSSICHLTNESDGHTTSLYGIGFGPFIITNKHLFRRNNGTLVVQSLHGRFKVKDTTTLQQHLVDGRDMIIIRMPKDFPPFPQKLKFREPQREERICLVTTNFQTKSMSSMVSDTSCTFPSGDGIFWKHWIQTKDGQCGSPLVSTRDGFIVGIHSASNFTNTNNYFTSVPKNFMELLTNQEAQQWVSGWRLNADSVLWGGHKVFMVKPEEPFQPVKEATQL [V64R] | 0.151 | – | – | 0.113 | – | 0.129 | – | 0.101 | – | – | – | – | 0.108 | 0.129 | – | – | –
MGESLFKGPRDYNPISSSICHLTNESDGHTTSLYGIGFGPFIITNKHLFRRNNGTLVVQSLHGWFKVKDTTTLQQHLVDGRDMIIIRMPKDFPPFPQKLKFREPQREERICLVTTNFQTKSMSSMVSDTSCTFPSGDGIFWKHWIQTKDGQCGSPLVSTRDGFIVGIHSASNFTNTNNYFTSVPKNFMELLTNQEAQQWVSGWRLNADSVLWGGHKVFMVKPEEPFQPVKEATQL [V64W] | 0.132 | – | 0.103 | – | – | 0.0988 | 0.114 | 0.119 | – | – | – | 0.131 | – | – | 0.117 | 0.103 | 0.115
MGESLFKGPRDYNPISSSICHLTNESDGHTTSLYGIGFGPFIITNKHLFRRNNGTLVVQSLHGVFKVKDTTTLQQHLVDGRDMIIIRMPKDFPPFPQKLKFREPQREERICLVTTNFQTKSMSSMVSDTSCTFPSGDGIFWKHWIQTKDGQCGSPLVSTRDGFIVGIHSASNFTNNNNYFTSVPKNFMELLTNQEAQQWVSGWRLNADSVLWGGHKVFMVKPEEPFQPVKEATQL [T176N] | 0.091 | – | 0.0683 | 0.0841 | 0.0896 | 0.0785 | 0.0664 | 0.0746 | – | – | 0.0689 | 0.073 | 0.0662 | – | 0.0618 | – | –
